# The list shows a part of the results.
# Molecular target: no compound (DMSO)
# Assay: log2 fold change of degron read counts, EGFP-low vs EGFP+ sorted cells; higher = lower degron-EGFP level without compound (poor expression or instability)
# Conditions: compound: DMSO control; 18 h
# 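Note: jurkat cells carrying a lentiviral library of mutant zinc finger degrons fused to EGFP plus mCherry, mCherry+ cells FACS sorted, degron abundance counted by next-generation sequencing.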
row,Sequence,log2 fold change of degron read counts
1,FKCEICGRYFTQKGNLLRHIKL,-0.406
2,FQCPICGAAFTQKGNLLRHIKL,-0.145
3,FRCEQCGARFTQKGNLLRHIKL,-0.952
4,FNCPICGHQFTQKGNLLRHIKL,-0.0114
5,FICNQCGADFTQKGNLLRHIKL,-1.61
6,FCCNQCGHEFTQKGNLLRHIKL,-1.21
7,FHCPVCGAQFTQKGNLLRHIKL,-0.471
8,FECEICGRVFTQKGNLLRHIKL,-1.18
9,FNCDVCGAWFTQKGNLLRHIKL,-0.823
10,FYCNICGASFTQKGNLLRHIKL,-0.587
11,LQCNQCGFPCTQKGNLLRHIKL,0.189
12,FCCEVCGAQFTQKGNLLRHIKL,-1.93
13,FLCPICGRDFTQKGNLLRHIKL,-0.61
14,FFCEQCGAQFTQKGNLLRHIKL,-1.53
15,FICPICGAAFTQKGNLLRHIKL,-0.039
16,FFCPICGHAFTQKGNLLRHIKL,0.466
17,FSCEVCGAYFTQKGNLLRHIKL,-0.676
18,FGCEICGHLFTQKGNLLRHIKL,0.0413
19,FKCNQCGRHFTQKGNLLRHIKL,-0.18
20,FECEICGHVFTQKGNLLRHIKL,-2.24
21,FICDQCGASFTQKGNLLRHIKL,-2.2
22,LECNQCGFLCTQKGNLLRHIKL,0.741
23,FKCPICGAFFTQKGNLLRHIKL,-0.0914
24,FECPQCGATFTQKGNLLRHIKL,-1
25,FACPICGHHFTQKGNLLRHIKL,-0.338

row,Sequence,log2 fold change of degron read counts
1,FYCPICGAEFTQKGNLLRHIKL,-0.0356
2,FECNVCGAAFTQKGNLLRHIKL,-2.02
3,FACEQCGATFTQKGNLLRHIKL,-2.15
4,FSCEICGADFTQKGNLLRHIKL,-2.25
5,FKCPQCGALFTQKGNLLRHIKL,-0.493
6,FSCNQCGHDFTQKGNLLRHIKL,-0.62
7,FKCNQCGRGFTQKGNLLRHIKL,-0.496
8,FVCNQCGHFFTQKGNLLRHIKL,0.00673
9,FACNICGATFTQKGNLLRHIKL,-0.832
10,FYCPVCGADFTQKGNLLRHIKL,-0.148
11,FMCEICGAAFTQKGNLLRHIKL,-1.79
12,FHCDVCGAHFTQKGNLLRHIKL,-1.58
13,FGCNQCGRRFTQKGNLLRHIKL,-0.0401
14,FACEICGRYFTQKGNLLRHIKL,-0.432
15,LSCNQCGFECTQKGNLLRHIKL,-0.439
16,FYCEICGRCFTQKGNLLRHIKL,-0.889
17,LMCPICGFWCTQKGNLLRHIKL,1.71
18,FFCPVCGAHFTQKGNLLRHIKL,-0.185
19,FWCEICGHEFTQKGNLLRHIKL,-1.02
20,FCCDICGALFTQKGNLLRHIKL,-0.806
21,FQCNQCGACFTQKGNLLRHIKL,-0.0366
22,FVCEICGASFTQKGNLLRHIKL,-1.31
23,FHCDQCGADFTQKGNLLRHIKL,-0.914
24,FFCEICGAFFTQKGNLLRHIKL,-0.342
25,FACPICGREFTQKGNLLRHIKL,-0.313
